# In publication PMC12136788:
# This is one part of the list.
# T1: UNK ZnF1-3 (human, UniProt Q9C0B0 31-174)
# T1 sequence: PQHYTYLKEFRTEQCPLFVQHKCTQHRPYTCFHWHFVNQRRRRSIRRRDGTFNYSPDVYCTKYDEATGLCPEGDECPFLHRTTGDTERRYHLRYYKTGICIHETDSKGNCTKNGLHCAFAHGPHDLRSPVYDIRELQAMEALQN
# B1: chr6:143133109:143133110:+_ENSMUSG00000030275_ENSMUST00000032413|mus_mus|motif|central (ssRNA)
# RNA: GGGAGUUCUACAGUCCGACGAUCUUUGGGGAUCCAGCCAUUGUGCGCAUGAAUAGCAUGGAUUUUAGCAAGCUGACGAGCGGUUAGCCUGAAAAUGGCUGGGUUGCAGACAUGCUGCGGGUCCAAAGCUUCGCCCUGGAUAAACAACAGAGGAUUGAGCAUCA
# B2: chr6:40197388:40197389:+_ENSMUSG00000057716_ENSMUST00000061740|mus_mus|mus_mus_mus_hu_False|88_88 (ssRNA)
# RNA: GGGAGUUCUACAGUCCGACGAUCGAGACACUGGGGUGGAUUUAUUCUCAGUUUGGGUGGGUGCUAGCCACUAAGACUGUUAUUUUGGGAUUCAUGGCCUUGAAUAUCAAGAGGGAAAGGAAGAGGAUGGAAAGAGUCAAGAGUCAACAGAGGAUUGAGCAUCA
# B3: 113187099_113187219_1241_3pUTR_ENSG00000163611_ENST00000295872|human|control|control (ssRNA)
# RNA: GGGAGUUCUACAGUCCGACGAUCUUCUUCCAUUUCAUGUUCCACUUCAUGUAUCAUGUGUUUGAGGACAUCCAGGUUGGAAUUAGUCCUAUUUGGUAAGUCUGCAGAGGUUGUGCUACCUGAUGAUAUGUUUUUCUUCGGCUUCAACAGAGGAUUGAGCAUCA
# B4: chr11:30747457:30747458:+_ENSMUSG00000040850_ENSMUST00000041231|mus_mus|FALSE|FALSE (ssRNA)
# RNA: GGGAGUUCUACAGUCCGACGAUCACCCUUAAAGAGGCAGAAACGCCGGGGACUAAACUUAUCUCUUCCUUUUCUGUCUUCUAAAGAUAGAAAUGUGAUUAACUGCUCAACAAACUUAGGAUCAGAAAAACGAUCAUAUAUAAUCAACAGAGGAUUGAGCAUCA
# B5: chr2:9570881:9570882:+_ENSG00000119203_ENST00000238112|hu_mus|hu_hu_hu_mus_False|18_108 (ssRNA)
# RNA: GGGAGUUCUACAGUCCGACGAUCACUUGUCUUCUGUAGGAACCAGGGCAGGGCUCCACAGUGAUCCAAAUGGAAAUGACUGAUCAACAGAAGGUCGAUCUCAGCUGGGUCGAUAAGAUCAAUAUAAGGAAGGGCAUCCAUUCCCAACAGAGGAUUGAGCAUCA
# B6: chr1:58468927:58468928:-_ENSMUSG00000026034_ENSMUST00000148330|mus_mus|mus_mus_mus_hu_False|1_18 (ssRNA)
# RNA: GGGAGUUCUACAGUCCGACGAUCAAUUACUGAAAAAGAUGUUCAUUACCUUAGCUAUGUACUUAAUGAACCAAAUUACCCAAACAAAAUAAACAUGGCAAUAUAAAAAUGUUAAGAAAAUAACUUACUGUACAAAAAGACUGACAACAGAGGAUUGAGCAUCA
# B7: chr1:115282363:115282364:-_ENSG00000009307_ENST00000339438|perfect_dup|motif|central (ssRNA)
# RNA: GGGAGUUCUACAGUCCGACGAUCAUCAUCUCCUACUUUUAAGUCUUGGAGGUUGCCAUUAUAUUGUGAACAGUGGAAGAAAAGUCGGGCUUGCCGUUCUGAACACUGAAUGAAUCCGUAAGAGGUCAAGAGUUUUUCAAUAACCAACAGAGGAUUGAGCAUCA
# B8: chr21:40768814:40768815:+_ENSG00000182093_ENST00000333781|hu_mus|FALSE|FALSE (ssRNA)
# RNA: GGGAGUUCUACAGUCCGACGAUCCUGGCCUUCCCCUCAGCUGAAAGGGUGGAGAACGAUAGCCACAACUUUGUUACAGACUAAAAUCCAACAGGUGAUUCCAAUUCCACCUGCUACUCGAGUAGGAAAGGCUACCAGGCGGUCCAACAGAGGAUUGAGCAUCA
# B9: chr7:44244176:44244177:+_ENSG00000106636_ENST00000223369|hu_mus|hu_hu_hu_mus_False|1_1 (ssRNA)
# RNA: GGGAGUUCUACAGUCCGACGAUCACUGUCGCUCCGGACGUAGACAUGGCAAAGAUACUCUUGUUCUUUGACAGAAGCUCUGCUGCCUUUCCCCGAGCGUUCCACAAUCAGUUGACUUGUAAAGGUCAUGAAUUCCUGAACGCUCAACAGAGGAUUGAGCAUCA
# B10: chr5:173383253:173383254:+_ENSG00000113742_ENST00000334035|hu_mus|FALSE|FALSE (ssRNA)
# RNA: GGGAGUUCUACAGUCCGACGAUCCAAAAUACCUAUGUUGUAGGUUGUUCUUUUCAUUCUACCACUGAUAGUUACACACUGCUGUGCAGGACAUGCCAGUGUGAAGAGGCUGAGGAAGAGUUGGAAUUAACAAAAGAGGGCACUCAACAGAGGAUUGAGCAUCA
# B11: chr11:51926749:51926750:+_ENSMUSG00000020349_ENSMUST00000020608|perfect_dup|FALSE|FALSE (ssRNA)
# RNA: GGGAGUUCUACAGUCCGACGAUCGUCAACAUAAUCUCCCAUAAACAAGUAAUUUGUAUCUGGUGAUUUGCCACCAAUUCUAAACAGUUCCAUGAGAUCAUGAAAUUGCCCAUGCACAUCUCCACAGACAGUAACUGGACAUCGCAACAGAGGAUUGAGCAUCA
# B12: 46243500_46243879_2085_3pUTR_ENSG00000189079_ENST00000334344|human|control|control (ssRNA)
# RNA: GGGAGUUCUACAGUCCGACGAUCUGGUUGGCAACAGGAGUCCUCUGAAAAUGGUUUCCUAUGGUUUGUGAUCCAUGAGGGAUUCCUGCAGGUGAAGGAGCAGGAGAUACAUCAGGAACAGAAUCAACACGAACAACAGAAGUACAACAGAGGAUUGAGCAUCA
# B13: chr1:58468927:58468928:-_ENSMUSG00000026034_ENSMUST00000148330|mus_mus|mus_mus_mus_hu_False|38_78 (ssRNA)
# RNA: GGGAGUUCUACAGUCCGACGAUCAAUUACUGAAAAAGAUGUUCAUUACCUUAGCUAGGCCAUGUAUGAACCAAAUUACCCAAACAAAAUAAACAUGUUUACAAAUUAAUGUUAAGAAUUUACAAAGCUGUACAAAAUAACUUACAACAGAGGAUUGAGCAUCA
# B14: chr4:42003652:42003653:+_ENSG00000014824_ENST00000513699|hu_hu|FALSE|FALSE (ssRNA)
# RNA: GGGAGUUCUACAGUCCGACGAUCGGUACCAAUAUAUGGAUGACUACAGGGAACCAUGUUUGAAAAGCUUCCAAAUGUCACUAAAUUCUGCCACUCCUGGCGGUCGCUGGGAUUACAGGCCGCCGCCCUGCAUCGCAGACGGAGCAACAGAGGAUUGAGCAUCA
# B15: chr15:79189513:79189514:+_ENSG00000185787_ENST00000426013|hu_hu|motif|central (ssRNA)
# RNA: GGGAGUUCUACAGUCCGACGAUCCUUUUAUUUUUUCUCUGUUUAAAAUCAAACAGAAAACAAACAUCAAUUGUUAUACACGGACAUCUUCAAAGCACAUCGUUUGUACAAGAGAUAGACUAAGAACAAAAAUGUGUUUACGGACAACAGAGGAUUGAGCAUCA
# B16: chr22:19452774:19452775:-_ENSG00000070010_ENST00000399523|hu_hu|hu_hu_hu_mus_False|1_98 (ssRNA)
# RNA: GGGAGUUCUACAGUCCGACGAUCCUUCUCAUUGUAGUUGAUGGCAAUCACAUCUCCAGUCGUCAGACAGGCGAAGUUUCUCAAUGCAUUUUCUAAUACCGCUUUAGGGUUGGUAAUAUCCAGGAAGUCUGGGCUCUGAGGUUGCAACAGAGGAUUGAGCAUCA
# B17: chr3:119450855:119450856:-_ENSMUSG00000028134_ENSMUST00000029780|mus_hu|mus_mus_mus_hu_False|48_58 (ssRNA)
# RNA: GGGAGUUCUACAGUCCGACGAUCUGUGGUGCCACUAAGAGGAGUAUUUGCUGUCUGGACAGCUGUCACAGCUUGAAGAACUACUUGCGCACGUUGGUUUAAUGUAUUAUCUGUCUUUAGUUCUUUGUGAUUCGAGUACUGGAUCAACAGAGGAUUGAGCAUCA
# B18: chr7:151048522:151048523:+_ENSG00000013374_ENST00000566856|hu_mus|hu_hu_hu_mus_True|1_78 (ssRNA)
# RNA: GGGAGUUCUACAGUCCGACGAUCCUGUUUCUUAUUUAUUACGAUCUUGAUGUAAUUUUCUUGAAGUCCGAAAGUUUCAGCUAUUUGACACCUCAGGUCUCUACCAGUGACAUGCAAGCGGGUCUCCAACAAGCUUUUCCUAUCCAACAGAGGAUUGAGCAUCA
# B19: chrX:50293416:50293417:+_ENSMUSG00000025626_ENSMUST00000078944|mus_hu|motif|central (ssRNA)
# RNA: GGGAGUUCUACAGUCCGACGAUCUUUCUUUUUACUUUUAGGUGAUGAGGGCUCCAGUUCAUGUUCAUUAAAACUUUCUUCGGAAUCAGCUUCGGAGUUAUGUGCAGUUUUCUUGUGUUUUCGGCAAUAGACCAUGUAAAUUCCCAACAGAGGAUUGAGCAUCA
# B20: chr10:33214929:33214930:-_ENSG00000150093_ENST00000302278|hu_hu|hu_hu_hu_mus_True|38_88 (ssRNA)
# RNA: GGGAGUUCUACAGUCCGACGAUCAACAAGUUCAUUGAAAAACUCUCCUUUAUUAGUAAGACUAAGCACAUUUUUGUAGCUAAAUGGGCUGGUGCAGUUCUGUUCACUUGUACAAGGAUUUCUUAGCUUUGCUGGGGUUGUGCUCAACAGAGGAUUGAGCAUCA
# B21: chr5:128448638:128448639:+_ENSG00000066583_ENST00000173527|hu_mus|hu_hu_hu_mus_False|8_28 (ssRNA)
# RNA: GGGAGUUCUACAGUCCGACGAUCGGCACUCGCCUUAAUUAGGUUCUGAAUUUCCUUGAACUUCGGGUGGUCUUUGUCAGCCACCAGCUGUAGGAGGACAGCCUCACUCGUGGUCACGAUGAUCCCAGUUCGAGCGAGACGCUCCAACAGAGGAUUGAGCAUCA
# B22: chr17:46962767:46962768:-_ENSMUSG00000036568_ENSMUST00000040624|mus_hu|FALSE|FALSE (ssRNA)
# RNA: GGGAGUUCUACAGUCCGACGAUCAACAGGCACAUGCGUCACCCCUAUAGGCUGCAGCGUCUGACCUGAGUAAUUAGAAACAUUAGAAGCCUGAGUAAAGGAUGCUGAUGAAGAAGGAUGAAGCUGAGCUUGUGCAAACUGUUGCAACAGAGGAUUGAGCAUCA
# Molecular target: T1, UNK ZnF1-3
# Test: nsRBNS (natural sequence RNA bind-n-seq); RBNS binding buffer (assumed for nsRBNS): 25 mM Tris pH 7.5, 150 mM KCl, 3 mM MgCl2, 0.01% Triton X-100, 500 ug/ml BSA, 20 U/ml SUPERase-In, 4 C; UNK is unkempt and MSI1 is Musashi-1; names of the RNAs are library labels; protein concentration not given here; high values mean tight binding
row,Binder,binding signal [enrichment R]
1,B1,0.834
2,B2,1.51
3,B3,0.422
4,B4,0.442
5,B5,1.07
6,B6,1.72
7,B7,1.55
8,B8,1.05
9,B9,0.501
10,B10,1.06
11,B11,1.07
12,B12,1.48
13,B13,0.667
14,B14,0.804
15,B15,0.334
16,B16,0.827
17,B17,0.715
18,B18,0.798
19,B19,0.681
20,B20,0.668
21,B21,0.657
22,B22,1.51
